Laboratory results as given in PubChem BioAssay AID1508624 (National Center for Advancing Translational Sciences (NCATS), 2021).
Among all 48,000 compounds or so, about 120 (0.25%) were called active. Another 4% or so got no clear call; they are omitted. Calls come from the whole dose curve; as a rule, active = well fitted activation curve with a large enough effect; inconclusive = small, poorly fitted or top-dose-only effect, or another doubt; inactive = no such curve, though single readings can be large or run the other way. Some of the results follow.

Experiment: Primary qHTS for Identification of Small Molecule Activators of Huntingtin-Antisense Promoter Activity; note: nearly all actives have a fitted effect of over 55% in size
Conditions: HEK293 HTT-AS promoter firefly luciferase reporter (activity 0% = vehicle and -100% = no light), 24 h; series mostly up to 57.5 µM; activity change, positive = activation: at the top concentration
In short: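 Firefly luciferase signal from promoter-reporter HEK293 cells was scaled between vehicle (0%) and zero RLU (-100%). Compounds were tested at final concentrations of up to 57.5 uM over 24 h at 37 degrees C. PTC124 at 50 uM final served as control inhibitor.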

SMILES | activity change, positive = activation
Cc1ccc(CNC(=O)C(=O)NCC(c2ccco2)S(=O)(=O)c2cccs2)cc1 (configuration not stated) | inactive: -22.2%
CCN1CCN(C(c2ccc(F)cc2)c2c(O)cc(C)n(CCOC)c2=O)CC1 (configuration not stated) | inactive: -17.4%
CCc1cccc2c(-c3ccc(F)cc3)nc(SCC(=O)Nc3ccccc3)nc12 | inactive: -13.5%
CC(C)CCNC(=O)C1CCN(C(=O)N2CCOc3ccc(Cl)cc32)CC1 | inactive: -13.7%
COc1ccc(C(=O)Nc2ccc(-c3cc4ccccc4oc3=O)c(C)c2)cc1OC | inactive: -34.8%
CCc1ccc(Sc2cc(C(=O)NC(C)CC)c3ccccc3n2)cc1 (configuration not stated) | inactive: -21.9%
COc1cccc(NC(=O)c2cnn(-c3ccccc3)c2-n2cccc2)c1 | inactive: -22%
CCOc1ccc(OCC(=O)Nc2nnc3n2CCS3)cc1 | inactive: -0.425%
COc1ccccc1-n1c(/C=C/c2c(C)n(C)c3ccccc23)nc2ccccc2c1=O | inactive: -30.3%
COc1ccc(-c2noc(CSc3nnc(-c4ccncc4)n3-c3ccc(C)cc3)n2)cc1 | inactive: -38.2%
CCOc1ccc(Sc2cc(C(=O)NCCc3ccccc3)c3ccccc3n2)cc1 | inactive: 0.501%
CCOC(=O)C(Cc1c[nH]c2ccccc12)NC(=O)COc1ccc(Cl)c(C)c1 (configuration not stated) | inactive: -16.6%
COc1cccc(CNC(=O)C2CCC(CNS(=O)(=O)c3ccc(Br)s3)CC2)c1 (configuration not stated) | inactive: -16.7%
COc1ccccc1CNc1ccc(-c2nc(-c3ccncc3)no2)cc1[N+](=O)[O-] | inactive: -8.1%
COc1ccc(CNC(=O)CC(c2ccc(OC)c(OC)c2)N2Cc3ccccc3C2=O)cc1 (configuration not stated) | inactive: -33.8%
CCOc1ccc(NC(=O)CSC2=Nc3ccccc3C3=NC(CC(=O)NCc4ccco4)C(=O)N23)cc1 (configuration not stated) | inactive: -6.69%
Cc1cc2ccccc2n1CCNC(=O)c1cccc(Cl)c1 | inactive: -16.7%
CC(C)c1ccc(NC(=O)c2cc(S(=O)(=O)NCc3ccccc3Cl)ccc2F)cc1 | inactive: -29.9%
Cc1ccc(N(CC(=O)Nc2ccc(C)c(F)c2)S(=O)(=O)c2c(C)n[nH]c2C)cc1 | inactive: -22.4%
N#Cc1c[nH]n2c(NC3CCCC3)c(-c3cccc(Cl)c3)nc12 | inactive: 8.68%
CCOc1cc(C(=O)N2CCc3c([nH]c4ccccc34)C2c2ccccc2)cc(OCC)c1OCC (configuration not stated) | inactive: -26.2%
COc1ccc(C)cc1NC(=O)Cn1c(=O)ccc2cc(S(=O)(=O)N3CCCC3)ccc21 | inactive: -37%
CCOC(=O)c1sc2ncn(CC(=O)Nc3ccc(C)cc3Br)c(=O)c2c1C | inactive: -10.4%
O=C(Cn1c(=O)nc(-c2ccccc2)c2ccccc21)NCc1ccc(F)cc1 | inactive: 4.12%

SMILES | activity change, positive = activation
O=C(Nc1ccccc1)N(Cc1ccc(F)cc1)c1ccccn1 | inactive: -12.9%
C=Cc1ccc(CN2C(=O)c3ccccc3Sc3ccc(C(=O)OCc4ccco4)cc32)cc1 | inactive: -26.9%
Cc1cc(O)c(C(c2ccccc2)N2CCN(C)CC2)c(=O)n1Cc1ccco1 (configuration not stated) | inactive: -14%
COc1ccc(-c2noc(CN(C(C)C)S(=O)(=O)c3ccc(Br)cc3)n2)cc1 | inactive: -27.7%
CC1=C(C(=O)N2CCN(c3cccc(C)c3C)CC2)C2(CCCCC2)OC1=O | inactive: -7.32%
Cc1cccc(NC2=CC(c3cccc(Br)c3)N(c3cccc(C)c3)C2=O)c1 (configuration not stated) | inactive: -4.76%
CCOC(=O)c1c(C)[nH]c(C)c1S(=O)(=O)NCC(=O)N1CCN(c2cccc(C)c2)C(C)C1 (configuration not stated) | inactive: -17.9%
O=S(=O)(c1ccc2c(c1)CCN2)N1CCCCCC1 | inactive: -2.32%
Cc1ccc2c(c1)c1c(c(=O)n(Cc3ccccc3)c(=O)n1CC(=O)NCc1ccccc1Cl)n2C | inactive: -2.91%
CCc1ccc(NCc2cc3cc(OC)c(OC)cc3n(CC(=O)Nc3cc(C)ccc3C)c2=O)cc1 | inactive: -8.18%
CN(C(=O)CN1C(=O)CCSc2ccc(S(=O)(=O)N3CCCC3)cc21)c1ccccc1 | inactive: -8.32%
COc1ccc(C(C)n2c(C)c3c(C)nnc(C)c3c2C)cc1 (configuration not stated) | inactive: -17.5%
CCC(C)OC(=O)/C(C#N)=C\c1ccc(-c2cccc(C(F)(F)F)c2)o1 (configuration not stated) | inactive: -0.934%
Cc1cccc(C)c1Nc1nc2ccccc2nc1NS(=O)(=O)c1ccccc1 | inactive: -44.3%
COc1ccc(S(=O)(=O)N(CC(=O)NCc2ccccc2)c2ccc(C)cc2)cc1OC | inactive: -5.15%
CC1CCN(S(=O)(=O)c2ccc3c(c2)N(CC(=O)NC(C)C)C(=O)CO3)CC1 | inactive: -11.4%
COc1cccc(CNC(=O)CSc2ncc(S(=O)(=O)c3ccc(Br)cc3)c(=O)[nH]2)c1 | inactive: -7.75%
COc1ccc(CNC(=O)c2ccc3c(c2)CCN3S(=O)(=O)c2ccc(C)cc2)cc1 | inactive: -22.7%
Cc1ccc(NC(=O)C2CCCN2S(=O)(=O)c2cccc3nsnc23)cc1Cl (configuration not stated) | inactive: -30.1%
COc1ccc(CNC(=O)CSc2ncc(S(=O)(=O)c3ccc(C)c(Cl)c3)c(=O)[nH]2)cc1 | inactive: 1.94%
Cc1ccccc1C(=O)N1CCN(CCc2ccccn2)CC1 | inactive: -8.17%
CC1CCN(S(=O)(=O)c2ccc3c(c2)CCN3C(=O)Nc2ccc(Br)cc2)CC1 | inactive: 25.7%
Cc1ccc(CNC(=O)c2c(O)nc3c(C)cccn3c2=O)cc1 | inactive: 6.7%
